Patent US20230145766A1

T1: IL-2Rβ receptor with an avi tag and an His6 tag at the C-terminus (human), P14784
T1 chain: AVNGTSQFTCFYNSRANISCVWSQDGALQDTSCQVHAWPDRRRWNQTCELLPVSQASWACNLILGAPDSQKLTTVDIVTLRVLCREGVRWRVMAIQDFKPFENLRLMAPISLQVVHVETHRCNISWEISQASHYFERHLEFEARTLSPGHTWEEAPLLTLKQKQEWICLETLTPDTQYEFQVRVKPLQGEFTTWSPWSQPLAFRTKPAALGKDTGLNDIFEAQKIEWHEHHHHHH


The binders below were run against IL-2 receptor on the surface of human lymphocytes (T cells, NK cells, Treg cells from PBMC) (human) (assay: cell-based or functional assay). Conditions: not given.

Binder	CD25-pSTAT5 EC50 (CD8+ CD25- T cells) [nM]
Y089 (IL-2^.Y30E1.truncate1-2*(G4S)-FcLALA) (Fc fusion) APTSSSTKKTQLQLEHLLLDLQMILNGINNYKNPELEEMLTAKFYMPKKATELKHLQCLEEELKPLEEVLNLAQSKNFHDLISNINVIVLELKGSETTFMCEYADETATIVEFLNRWITFSQSIISTLTGGGGSGGGGS[omitted - human IgG1 Fc with changes]	2.2
Y092 (IL-2^.Y30E1.15BCL-2*(G4S)-FcLALA) (Fc fusion) APTSSSTKKTQLQLEHLLLDLQMILNGINNYKNPELEEMLTAKFYMPKKATELKHLQCLEEELKPLEEVLNLAGDASIHDLISNINVIVLELKGSETTFMCEYADETATIVEFLNRWITFSQSIISTLTGGGGSGGGGS[omitted - human IgG1 Fc with changes]	0.664

Molecular target: T1, IL-2Rβ receptor with an avi tag and an …
Test: BLI (ForteBio); biotinylated receptor on SA sensor, 100 nM IL-2-Fc in solution, 1:1 model
Conditions: remark: other sources report otherwise

Binder	Kd [nM]
Y040 (IL-2^.3X-2*(G4S)-FcLALA) (Fc fusion, here or on the partner: biotin on the avi tag (enzymatic labelling with BirA)) APTSSSTKKTQLQLEHLLLDLQMILNGINNYKNPKLTDMLTFEFYMPKKATELKHLQCLERELKPLEEVLNLAQSKNFHLRPRDLISNINVIVLELKGSETTFMCEYADETATIVEFLNRWITFSQSIISTLTGGGGSGGGGS[omitted - human IgG1 Fc with changes]	16

Molecular target: IL-2 receptor on the surface of human lymphocytes (T cells, NK cells, Treg cells from PBMC) (human)
Test: cell-based or functional assay
Conditions: not given
Remark: another data set of the same source

Binder	Ratio of reduction: IL-2 mutant EC50 (CD4+ or CD8+)/Y-144 EC50 (pSTAT5) [times]	EC50 of pSTAT5, CD4+CD25- T cells	EC50 of pSTAT5, CD8+ T cells	EC50 of pSTAT5, NK cells [nM]	EC50 of pSTAT5, Treg cells
2131 (Fc fusion) APASSSTKKTQLQLEHLLLDLQMILNGINNYKNPELEEMLTAKFYMPKKATELKHLQCLEEELKPLEEVLNLAGDASIHDLISDINVIVLELKGSETTFMCEYADETATIVEFLNRWITFSQSIISTLTGGGGSGGGGS[omitted - human IgG1 Fc with changes]	> 1000	–	–	–	–
2162 (Fc fusion) APASSSTKKTQLQLEHLLLDLQMILNGINNYKNPELEEMLTAKFYMPKKATELKHLQCLEEELKPLEEVLNLAGDASIHNLISNINVIVLQLKGSETTFMCEYADETATIVEFLNRWITFSQSIISTLTGGGGSGGGGS[omitted - human IgG1 Fc with changes]	> 1000	–	–	–	–
2107 (Fc fusion) APASSSTKKTQLQLEHLLLNLQMILNGINNYKNPELEEMLTAKFYMPKKATELKHLQCLEEELKPLEEVLNLAGDASIHDLISNINVIVLELKGSETTFMCEYADETATIVEFLNRWITFSQSIISTLTGGGGSGGGGS[omitted - human IgG1 Fc with changes]	> 1000	–	–	–	–
2166 (Fc fusion) APASSSTKKTQLQLETLLLDLQMILNGINNYKNPELEEMLTAKFYMPKKATELKHLQCLEEELKPLEEVLNLAGDASIHTLISNINVIVLELKGSETTFMCEYADETATIVEFLNRWITFSQSIISTLTGGGGSGGGGS[omitted - human IgG1 Fc with changes]	> 1000	–	–	–	–
2168 (Fc fusion) APASSSTKKTQLQLEHLLLDLQMILNGINNYKNPELEEMLTAKFYMPKKATELKHLQCLEEELKPLEEVLNLAGDASIHTLISNINVIVLELKGSETTFMCEYADETATIVEFLNRWITFSESIISTLTGGGGSGGGGS[omitted - human IgG1 Fc with changes]	> 1000	–	–	–	–
2169 (Fc fusion) APASSSTKKTQLQLEHLLLDLQMILNGINNYKNPELEEMLTAKFYMPKKATELKHLQCLEEELKPLEEVLNLAGDASIHNLISNINVIVLELKGSETTFMCEYADETATIVEFLNRWITFSESIISTLTGGGGSGGGGS[omitted - human IgG1 Fc with changes]	> 1000	–	–	–	–
2170 (Fc fusion) APASSSTKKTQLQLETLLLDLQMILNGINNYKNPELEEMLTAKFYMPKKATELKHLQCLEEELKPLEEVLNLAGDASIHQLISNINVIVLELKGSETTFMCEYADETATIVEFLNRWITFSQSIISTLTGGGGSGGGGS[omitted - human IgG1 Fc with changes]	> 1000	–	–	–	–
2478 (Fc fusion) APASSSTKKTQLQLEHLLLDLQMILNGINNYKNPKLTRMLTFKFYMPKKATELKHLQCLEEELKPLEEVLNLAGDASIHDLISDINVIVLELKGSETTFMCEYADETATIVEFLNRWITFSQSIISTLTGGGGSGGGGS[omitted - human IgG1 Fc with changes]	–	1.48 µM	21.7 µM	22.1	61.8 pM
2454 (Fc fusion) APASSSTKKTQLQLEHLLLNLQMILNGINNYKNPKLTRMLTFKFYMPKKATELKHLQCLEEELKPLEEVLNLAGDASIHDLISNINVIVLELKGSETTFMCEYADETATIVEFLNRWITFSQSIISTLTGGGGSGGGGS[omitted - human IgG1 Fc with changes]	–	636 nM	34.2 mM	148	0.115 nM
2481 (Fc fusion) APASSSTKKTQLQLEHLLLDLQMILNGINNYKNPKLTRMLTFKFYMPKKATELKHLQCLEEELKPLEEVLNLAGDASIHDLISRINVIVLELKGSETTFMCEYADETATIVEFLNRWITFSQSIISTLTGGGGSGGGGS[omitted - human IgG1 Fc with changes]	–	636 nM	–	148	0.115 nM
